Laboratory results reported in the RNAGym collection of RNA variant scans (doi:10.1073/pnas.2313332121).
Variants at the floor of the assay are shown more often than the library holds them.

B1: TPR 5TU (parent)
chain: GGAUCUUCUCGAUCUAACAAAAAAGACAAAUCUGCCACAAAGCUUGAGAGCAUCUUCGGAUGCAGAGGCGGCAGCCUUCGGUGGCGCGAUAGCGCCAACGUUCUCAACUAUGACACGCAAAACGCGUGCUCCGUUGAAUGGAGUUUAUCAUG

Variants of: B1
Experiment: polymerase ribozyme fitness, log enrichment relative to wild type (log ratio); higher = more active; in vitro selection for triplet polymerase activity
Outline: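 One round of in vitro selection, in triplicate, was applied to PCR-built, transcribed mutant libraries of each subunit of a heterodimeric triplet polymerase ribozyme. The steps were annealing with a biotinylated primer, partner subunit and triplets, incubation frozen at −7 °C, gel excision of extended constructs, streptavidin-bead capture and RT-PCR. Fitness is the logarithm, base 2, of genotype enrichment over wild-type enrichment from inverse-variance-weighted replicate averages of Illumina-sequenced inputs and outputs, keeping genotypes with ≥10 input reads and ≥1 read per output.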

Polymerase ribozyme fitness (log ratio), ≤ -4.2:
GGAUCUUCUCGAUCUAACAAAAAAGACAAAUCUGGCACAAAGCUUGAGAGCAUCUUCGGAUGCAGAGGCGGCAGUCUUCGGUGGCGCGAUAGCUCCAACGUUCUCAACUAUGACACGCAAAACGCGUGCUCCGUUGAAUGGAGUUUAUCAUG [C35G C75U G94U]
GGAUCUUCUCGAUCUAACAAAAAAGACAAAUCUGGCACAAAGCUUGAGAGCAUCUUGGGAUGCAGAGGCGGCAGCCUUCGGUGGCGCGAUAGCGCCAACGUUCUCAACUAUGACACGCAAAACGCGUGCUGCGAUGAAUGGAGUUUAUCAUG [C35G C57G C131G U134A]
GGAUCUUCUCGAUCUAACAAAAAAGACAAAUCUGGGACAAAGCUUGAGAGCAUCUUCGGAUGCAGAGGCGGCAGCCUUCGGUGGCGCGAUAGCGCCAACGUUCUCAACUAUGACACGCAAAACGCGUUCUCCGUUGAAUGGAGUUUAUCAUG [C35G C36G G128U]
GGAUCUUCUCGAUCUAACAAAAAAGACAAAUCUGGCACUAAGCUUGAGAGCAACUUCGGAUGCAGAGGCGGCGGCCUUCGGUGGGGCGAUAGCGCCAACGUUCUCAACUAUGACACGCAAAACGCGUGCUCCGUUGAAUAGAGUUUAUCAUG [C35G A39U U53A A73G C85G G140A]
GGAUCUUCUCGAUCUAACAAAAAAGACAAAUCUGGCACACAGCUUGAGAGCAUCUUCGGCUGCAGAGGCGGCAGCCUUCGGUAGCGCGAUAGCGCCAAAGUUCUCAACUAUGACACGCAAAACGCGUGCUCCGUUGAACGGCGUUUAUCAUG [C35G A40C A60C G83A C99A U139C A142C]
GGAUCUUCUCGAUCUAACAAAAAAGACAAAUCUGGCACAAAGCUUGAGAGCAUUUUCGGAUGCAGAGGCGGCAGCCUUCCGUGGCGCGAUAGCGCCAACGUUCUCAACUAUGACACGCAAAACGCGUGCUCCGUUGAAUGGAGUUUAUCAUG [C35G C54U G80C]
GGAUCUUCUCGAUCUAACAAAAAAGACAAAUCUGGCACAAAGCUUGAGAGCAUCUUCGGAUGCAGAGGCGGCAGAAUUCAGUGGCGCGAUAGCGCCAACGUUCUCAACUAUGACACGCAAAAUGCGUGCUCCGUUGAAUGGAGUUUAUCAUG [C35G C75A C76A G80A C123U]
GGAUCUUCUCGAUCUAACAAAAAAGACAAAUCUGGCAUAAAGCUUGAGAGCAUCUUCGGAUGCAGAGGUGGCAGCCUUCGGUUGCGCGAUAGCGCCAACGUUCUCAACUGUGACACGCAAAACGCGUGCUCCGUUGAAUGGAGAUUAUCCUG [C35G C38U C69U G83U A110G U144A A150C]
GGAUCUUCUCGAUCUAACAAAAAAGACAAAUCUGGCACAAAGCUUGAGAGCAUCUUCGGAUGCAGAGGAGGCAGCCUUCGGUGGCGCGAUAGCGCCAACGCUCUCAACUAUGACACGCAAAACGCGAGCUCCGUUGAAUGGAGUUUAUCAUG [C35G C69A U101C U127A]
GGAUCUUCUCGAUCUAACAAAAAAGACAAAUCUGGCACAAAGCUUGAGAGCAUCUUUGGAUGCAGAAGCGGCAGCCUUCGGUGGCGCGAUAGCGCCAAAGUUCUCAACUAUGACACGCAAGACGCCUGCUCCGUUGAAUGGAGUUUAUCAUG [C35G C57U G67A C99A A121G G126C]
GGAUCUUCUCGAUCUAACAAAAAAGACAAAUCUGGCACAAAGCUUGAGAGCAUCUUCGGAUGCAGAGGCGGCAGGCUUCGGUGGCGCGAUAGCGCCAGCGUUCUCAACUAUGACACGCAAAACGCCUGCUGCGUUGAAUGGAGUUUAUCAUG [C35G C75G A98G G126C C131G]
GGAUCUUCUCGAUCUAACAAAAAAGACAAAUCUGGCACAAAGCUUGAGAGUAUCUUCGGAUGCAUAGGCGGCAGCCUUCGAUGGCGAGAUAGCGCCAACGUUCUCAACUAUGACGCGCAAAACGUGUGCUCCGUUGAAUGGAGUUUAUCAUG [C35G C51U G65U G81A C87A A115G C125U]
GGAUCUUCUCGAUCUAACAAAAAAGACAAAUCUGGCACAAAGCUUGAGAGCAUCUUCGGAUGCAGAGGCGGCGGCCUUCGGUGGGGCGAUAGCGCCAACGUUCUCAACUAUGACACGCAAAACGCGUGCUCCGUUGAAUGGAGUUUAUCAUG [C35G A73G C85G]
GGAUCUUCUCGAUCUAACAAAAAAGACAAAUCUGGCACAAAGCUUGAGGGCAUCUUCGGAUGCAGAGGCGGCAGCCUUCGGUGUCGCGAUAGCGCCAACGUUCUCAACUGUGAUACGCAAAACGCGUGCUCCGUUGAAUGGAGUUUAUCAUG [C35G A49G G84U A110G C114U]
GGAUCUUCUCGAUCUAACAAAAAAGACAAAUCUGGCACAAAGCUUGAGAGCGUCUUCGGAUGCAGAGGCGGCAGCCUUCUGUGGAGCGAUAGCGCCAACGUUCUCAACUAUGACACGCAAAUCGCGUGCUCCGUUGAAUGGAGUUUAUCAUG [C35G A52G G80U C85A A122U]
GGAUCUUCUCGAUCUAACAAAAAAGACAAAUCUGGCACAAAGCUUGAGAGCAUCUUCGGAUGCAGAGGCGGCAGCCUUCGGUGGCGCGAUAGCGCCAACGUUCUCAACUAUGACACGCAAAUCGUGUGCUCCGUUGAAUGCAGUUUAUCAUG [C35G A122U C125U G141C]
GGAUCUUCUCGAUCUAACAAAAAAGACAAAUCUGGCACAAAGCUUGAGAGCAUCUUCGGAUGCAGAGGCGGCAGCAUUCGGUGGCGCGAUAGCGCUAACGUUCUCAACUAUGACACGCAAGACGCGUGCUCCGUUGAAUGGAGUUUAUCAUG [C35G C76A C96U A121G]
GGAUCUUCUCGAUCUAACAAAAAAGACAAAUCUGGCACAAAGCUUGAGAGCAUCUUCGGAUGCAGAGGCGGAAGCCUUCGGUGGCGCGAUAGCGCCAACGUUCUCUACUAUGACACGCAAAACGCGUGCUCCGUUGAAAGGAGUUUAUCAUG [C35G C72A A106U U139A]
GGAUCUUCUCGAUCUAACAAAAAAGACAAAUCUGGCACAAAGCUUGAGAGCAUCUUCGGAUGCAGAGGCGGCAGUCUUCGGUGGCGCGAUUGCGCCAACGUUCUCAACUAUGACACGCAAAACGCGUGCUCCGUUGAAUGGAGUUUACCGUG [C35G C75U A91U U148C A150G]
